Reference: PubChem BioAssay AID624171 (National Center for Advancing Translational Sciences (NCATS), 2012)
Among all 410,000 compounds or so, about 1,200 (0.29%) were called active. Inconclusive results, whose numbers are uncertain, are shown with a selection of clear calls. Calls come from the whole dose curve; as a rule, active = well fitted activation curve with a large enough effect; inconclusive = small, poorly fitted or top-dose-only effect; inactive = flat fitted curve, though single readings scatter. Where the call is inconclusive, the potency comes from a doubtful curve fit.

Assay: qHTS of Nrf2 Activators; note: nearly all actives have a fitted effect of over 65% in size; for activation: % of control where 0% means no effect
Details: AREc32 ARE-luciferase reporter (MCF7-derived line), luminescence, 24 h; activation: at 46.1 µM (top of the series)
In short: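 Each well held 1000 AREc32 cells, which were incubated with compound for 24 hr at 37 deg C after overnight attachment, and ARE reporter activity was quantified by firefly luciferase luminescence.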
Potency is the fitted concentration of half-maximal effect; tags give direction and shape of the fitted curve.

Potency, inconclusive:
CCSc1ccc(/C(N)=N/OC(=O)c2cccs2)cn1 20 µM [activator, single point]
Clc1ncnc2scc(-c3ccc(Br)cc3)c12 22.4 µM [activator, single point]
COc1ccc(Cl)cc1Nc1nc(Cl)nc(NCCO)n1 11.2 µM [activator, partial curve, poor fit]
Nc1c(C(=O)Nc2ccccc2)sc2nc(-c3ccco3)ccc12 1.12 µM [activator, partial curve, poor fit]
COc1ccc2nc(NC(=O)c3cccnc3SC)sc2c1 15.8 µM [activator, single point]
O=S(=O)(Cc1cc(Cl)nc(-c2cccnc2)n1)c1ccccc1 12.6 µM [activator, partial curve]
COc1nc(C)ccc1-c1noc(-c2cccs2)n1 11.2 µM [activator, partial curve, poor fit]
O=C1c2cccc3cccc(c23)C(=O)N1OS(=O)(=O)c1ccccc1 15.8 µM [activator, partial curve, poor fit]
Cc1ccc(C(=O)Nc2ncc3c(n2)CC(c2ccco2)CC3=O)cc1 (configuration not stated) 15.8 µM [activator, partial curve, poor fit]
CC1(C(=O)Nc2cnc3ccccc3c2)CCN1Cc1ccc(-c2ccccc2)o1 (configuration not stated) 22.4 µM [activator, partial curve, poor fit]
N#C/C(=C/C=C/c1ccccc1)C(=O)Nc1ccccc1 22.4 µM [activator, single point]
O=c1cc2oc3cc(O)c(O)cc3c(-c3ccccc3O)c-2cc1O 14.1 µM [activator, single point]
Cc1cccc(NC(=O)CSc2ccc(-c3ccco3)nn2)c1C 12.6 µM [activator, partial curve]
CN(CC(=O)Nc1ccccc1Cl)C(=O)COC(=O)c1nc(Cl)c(Cl)c(Cl)c1Cl 11.2 µM [activator, partial curve]
COC(=O)CNC(=O)COC(=O)/C=C/c1ccc2ccccc2n1 22.4 µM [activator, single point]
Cc1cccc(NC(=O)Nc2ccccc2[N+](=O)[O-])n1 6.31 µM [activator, partial curve, poor fit]
COC(=O)c1sc2nc(C)c([N+](=O)[O-])c(C)c2c1N 12.6 µM [activator, partial curve]
CCOC(=O)C1=CC[C@@H](c2ccccc2)N(S(=O)(=O)c2ccc(C)cc2)[C@H]1C#N 14.1 µM [activator, single point]
CCc1cc(C(c2ccncc2)N2CCN(C)CC2)c(NC(=O)c2ccccc2)s1 (configuration not stated) 15.8 µM [activator, single point]
NC(=O)c1ccccc1NC(=O)c1ccoc1 12.6 µM [activator, partial curve, poor fit]
O=C(N/N=C/c1cccc([N+](=O)[O-])c1)c1cccc2cc[nH]c12 11.2 µM [activator, partial curve, poor fit]
COc1cc2c(cc1NC(=O)c1ccco1)CCCC2 1.58 µM [activator, full curve, poor fit]
COC(=O)c1sc(-c2ccc(C(C)(C)C)cc2)cc1NC(=O)/C=C/C(=O)O 5.62 µM [activator, single point]
COc1ccc(Cl)cc1NC(=O)c1c(NCc2cccnc2)sc2c1CCC(C)C2 (configuration not stated) 20 µM [activator, single point]
NC(=O)C1=CC2C3C=CC2(O)C(=O)OC3O1 (configuration not stated) 5.01 µM [activator, single point]

Potency, active:
Cc1c(Cl)cccc1NC(=O)c1cc(-c2ccco2)on1 12.6 µM
O=C(C=Cc1ccccc1O)c1ccccc1O 14.1 µM
COc1ccc2sc(N(CCN(C)C)C(=O)/C=C/c3cccs3)nc2c1 10 µM
NC(=O)COC(=O)c1cc(-c2ccco2)nc2ccccc12 3.55 µM
COc1cccc(N=Nc2ccc(O)c3ncccc23)c1 11.2 µM

activation, inactive:
CCNc1nc(CN2CCOCC2)nc2sc3c(c12)CCC3 4.22%
Cc1cccc(C)c1NC(=O)CN1C(=O)c2ccccc2Sc2ncccc21 -1.3%
CCOc1ccc(S(=O)(=O)N2CCN(C(=O)c3ccc(-n4cncn4)c([N+](=O)[O-])c3)CC2)cc1 0.261%
CCOC(=O)/C(C#N)=C1/C=C(C)NC(c2ccccc2O)=N1 0.102%
COc1ccccc1CNC(=O)c1ccc(Nc2nc3ccccc3n3nnnc23)cc1 -1.04%
COc1ccc(CN2CCN(Cc3c[nH]c4ccccc34)CC2)cc1OC 7.42%
Cc1cc(C)cc(NC(=O)CCS(=O)(=O)c2ccc3c(c2)oc(=O)n3C)c1 -0.0814%
CCn1c(CC2C(=O)N(C)c3ccccc32)nc2ccccc2c1=O (configuration not stated) 3.71%
CCc1nc2c(cnn2-c2ccc(Cl)cc2)c(=O)n1-c1ccc(OC)c(Cl)c1 0.223%
Cc1ccc(OCC(=O)Nc2cc(-c3cccc(C)c3)nn2-c2ccccc2)cc1 1.11%
Cc1cc(C)cc(NC(=O)CN2C(=O)CCc3cc(S(=O)(=O)N4CCCCC4)ccc32)c1 2.8%
CCNC(=O)/C(C#N)=C/c1c(N2CC(C)OC(C)C2)nc2ccccn2c1=O (configuration not stated) 1.2%
COc1ccc2[nH]c3nc(SCc4nnc(-c5ccccc5)o4)nnc3c2c1 0.617%
CCc1nnc(NC(=O)CCC(=O)N2CCN(Cc3ccc(Cl)cc3)CC2)s1 0.179%
COc1cccc(NC(=O)CN(C)C(=O)c2c(C)nn(Cc3ccc(C)cc3)c2Cl)c1 0.47%
Cc1ccc(CSCC(=O)Nc2cc(S(=O)(=O)N3CCOCC3)ccc2OC(C)C)cc1 2.97%
N#Cc1c(NC(=O)CSC2=NCCS2)sc2c1CCCC2 13.9%
